From PubChem BioAssay AID540317 (National Center for Advancing Translational Sciences (NCATS), 2011)
The campaign covered roughly 390,000 compounds. About 2,200 (0.56%) were called active. This list was built around the results that the source calls inconclusive (neither active nor inactive); the mix of calls is not that of the screen. Calls follow the shape of the dose curve; as a rule, active = well fitted inhibition curve with a large enough effect; inconclusive = small, poorly fitted or top-dose-only effect; inactive = no such curve, though single readings can be large or run the other way. Potencies of inconclusive entries are doubtful fits and often do not repeat.

target: Chromobox protein homolog 1 (Homo sapiens) (UniProt P83916); test: HTS for Inhibitors of HP1-beta Chromodomain Interactions with Methylated Histone Tails; details: AlphaScreen HP1-beta / biotin-H3K9me3 peptide binding; series mostly up to 114 µM; activity change, negative = inhibition: at the top concentration; also: nearly all actives have a fitted effect of over 70% in size
UniProt P83916, sequence (P83916 whole entry, looked up): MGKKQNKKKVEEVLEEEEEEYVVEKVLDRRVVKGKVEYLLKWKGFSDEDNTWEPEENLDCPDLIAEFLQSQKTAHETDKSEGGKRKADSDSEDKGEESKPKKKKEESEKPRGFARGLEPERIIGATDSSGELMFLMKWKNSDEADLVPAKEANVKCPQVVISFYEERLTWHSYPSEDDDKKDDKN
Procedure, shortened: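 AlphaScreen: HP1-beta (50 nM) preformed 30 min with biotin-H3(1-18)K9me3 peptide (50 nM) in PBS pH 7.4, 0.01% Tween-20. Compound added for 30 min at RT, then streptavidin donor/nickel chelate acceptor beads (10 ug/mL) for 30 min.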
Potency is read from the fitted curve at half-maximal effect; tags tell the direction and shape of the fitted curve.

SMILES	activity change, negative = inhibition	Potency
CCCC/C(C)=N/NC(=O)CN(c1ccc(Br)cc1)S(=O)(=O)c1ccccc1	inactive: 9.57%	
CC1(C)Cc2c(C#N)c(NCCN3CCOCC3)nc(-c3ccco3)c2CO1	inactive: 27%	
CC(C(=O)Nc1ccc(F)c(F)c1)N1CCN(C)CC1 (stereo not drawn)		active: 35.5 µM
COC(=O)c1scc(-c2ccc(C)cc2)c1S(=O)(=O)N1CCN(c2ccc(F)cc2)CC1		inconclusive: 79.4 µM [inhibitor, single point]
Cc1cc(C)c(S(=O)(=O)NCCc2sc3nc(-c4ccc(F)cc4)nn3c2C)c(C)c1	inactive: 26.3%	
CCOC(=O)N1CCN(Cc2ccc(F)cc2F)CC1		inconclusive: 44.7 µM [inhibitor, partial curve]
O=C(Nc1cccc(Br)c1)N1CCN2CCCCC2C1 (stereo not drawn)	inactive: 36.5%	
O=C(CN1CCN(c2ccc(O)cc2)CC1)Nc1ccc(S(=O)(=O)N2CCCC2)cc1		inconclusive: 70.8 µM [inhibitor, single point]
CC(=O)N=c1sc2ccccc2n1C	inactive: 16.3%	
Cc1ccc(NC(=O)CN(C)Cc2ccc(F)cc2)c([N+](=O)[O-])c1		inconclusive: 39.8 µM [inhibitor, partial curve, poor fit]
CC(=O)Nc1ccc(S(=O)(=O)NNc2cccc(C)c2)cc1		inconclusive: 11.2 µM [inhibitor, partial curve, poor fit]
CCOc1ccc(-c2cnc(NCc3cccc4ccccc34)n2CCOC)cc1		inconclusive: 35.5 µM [inhibitor, partial curve]
N#Cc1nc(-c2ccco2)oc1N1CCN(C(c2ccccc2)c2ccccc2)CC1		inconclusive: 8.91 µM [inhibitor, partial curve, poor fit]
CCN(CC)C(=O)C1CCCN(Cc2ccc(OC)c(C)c2C)C1 (stereo not drawn)		inconclusive: 70.8 µM [inhibitor, partial curve, poor fit]
CCOC(=O)C1CCN(Cc2cccc(OCc3ccccc3)c2)CC1		inconclusive: 20 µM [inhibitor, full curve]
Cc1ccc(CN2CCN(/N=C/c3cc([N+](=O)[O-])ccc3Cl)CC2)cc1		inconclusive: 50.1 µM [inhibitor, partial curve, poor fit]
CCCCOc1ccc(C(=O)NN2C(=O)NC3(CCCCC3)C2=O)cc1OC	inactive: 17.1%	
CC1CN(C2CCN(S(=O)(=O)c3ccc4ccccc4c3)CC2)CC(C)O1 (stereo not drawn)		inconclusive: 25.1 µM [inhibitor, partial curve, poor fit]
COc1ccc(Cl)cc1-c1csc(N)n1	inactive: -14.5%	
Cc1ccc(C)c(Cn2c(O)c(N=NC(=S)Nc3ccccc3F)c3ccccc32)c1		inconclusive: 8.91 µM [inhibitor, partial curve]
Cc1c(CCO)c(=O)[nH]n1S(=O)(=O)c1ccc(Cl)cc1Cl	inactive: 32.8%	
O=C1c2ccccc2C(=O)c2c1cccc2N(CCO)CCO		inconclusive: 28.2 µM [inhibitor, full curve]
O=C(c1nnsc1S(=O)c1ccc(Cl)cc1)N1CCOCC1 (stereo not drawn)		inconclusive: 89.1 µM [inhibitor, single point]

SMILES	activity change, negative = inhibition	Potency
COc1cc2nc(N(CCN(C)C)C(=O)c3ccc4ccccc4c3)sc2cc1OC		inconclusive: 50.1 µM [inhibitor, partial curve]
CN(C)c1ccc(/C=N/N(Cc2ccccc2)c2ccccc2)cc1		inconclusive: 50.1 µM [inhibitor, partial curve, poor fit]
Cc1ccc(-c2nn(-c3cc(N4CCNCC4)ccc3[N+](=O)[O-])c(=O)c3ccccc23)cc1		inconclusive: 20 µM [inhibitor, full curve]
O=C(NCC1CCCO1)C(c1cccs1)N(Cc1ccccc1)C(=O)c1ccc(-c2ccccc2)[nH]1 (stereo not drawn)		inconclusive: 35.5 µM [inhibitor, single point]
Cc1ccc(N(CC(=O)NC2CCC(C)CC2)S(=O)(=O)c2cccnc2)cc1 (stereo not drawn)	inactive: 44.6%	
CCOC(=O)C1=C(C)N=c2s/c(=C\c3ccc(O)c([N+](=O)[O-])c3)c(=O)n2C1c1ccccc1OC (stereo not drawn)		inconclusive: 15.8 µM [inhibitor, full curve]
CC(C(=O)Nc1cccc([N+](=O)[O-])c1)N1CCN(C/C=C/c2ccccc2)CC1 (stereo not drawn)		inconclusive: 79.4 µM [inhibitor, single point]
COc1ccc(N=C2C(=O)N3c4c(cccc42)C(C)=CC3(C)C)cc1		active: 28.2 µM
O=C(c1ccco1)N1CCN(C2CCCC2)CC1		inconclusive: 56.2 µM [inhibitor, single point]
O=[N+]([O-])c1ccc(N2CCN(c3ccc(F)cc3)CC2)cc1	inactive: -5.03%	
C#Cc1ccc(CN2CCCC(C(=O)Nc3ccccc3Oc3cccnc3)C2)cc1 (stereo not drawn)	inactive: 31.1%	
CCn1c(SCC(=O)c2ccc3ccccc3c2)nnc1-c1ccco1		inconclusive: 89.1 µM [inhibitor, single point]
CO/N=C/c1ccc(N2CCCC2)c([N+](=O)[O-])c1		inconclusive: 44.7 µM [inhibitor, partial curve]
O=C(Sc1n[nH]c(=O)[nH]c1=O)c1ccccc1		inconclusive: 7.94 µM [inhibitor, full curve, poor fit]
Cc1ccccc1C(=O)N1CCC(C(=O)Nc2ccc(F)cc2F)CC1	inactive: 26.6%	
Cc1ccc(Nc2c([N+](=O)[O-])c(=O)n(C)c3ccccc23)cc1C		inconclusive: 50.1 µM [inhibitor, partial curve, poor fit]
COc1cccc(-c2nc(-c3ccccc3)c(-c3ccccc3)[nH]2)c1OCC(=O)O		inconclusive: 70.8 µM [inhibitor, partial curve]
O=c1[nH]ncn2cccc12		inconclusive: 28.2 µM [inhibitor, single point]
COc1ccc(-c2nnc(NC(=O)C3CCCN3S(=O)(=O)c3cccs3)o2)cc1 (stereo not drawn)	inactive: 23.6%	
Cc1ccccc1CN(CC1CCC(C(=O)O)CC1)C(=S)Nc1ccccc1F (stereo not drawn)	inactive: 32.5%	
Cc1[nH][nH]c(=O)c1C(c1ccc(-c2cccc(Cl)c2)o1)c1c(C)[nH][nH]c1=O		inconclusive: 56.2 µM [inhibitor, partial curve, poor fit]
O=C(COc1cc(F)ccc1[N+](=O)[O-])Nc1ccc(N2CCCCC2)cc1		inconclusive: 56.2 µM [inhibitor, partial curve, poor fit]
Cn1cccc1C(=S)N=P(C1CCCCC1)(N1CCOCC1)N1CCOCC1		inconclusive: 17.8 µM [inhibitor, partial curve, poor fit]

SMILES	activity change, negative = inhibition	Potency
Cc1cccc(Cc2cnc(NC(=O)CN3C(=O)/C(=C/c4ccccc4)SC3=S)s2)c1		inconclusive: 50.1 µM [inhibitor, partial curve]
Oc1ccc(N2CCN(c3nc(-c4cccs4)nc4ccccc34)CC2)cc1		inconclusive: 25.1 µM [inhibitor, partial curve]
Cc1cc(C(=O)COC(=O)C2=COCCO2)c(C)n1-c1ccccc1		inconclusive: 79.4 µM [inhibitor, single point]
CCn1c(SCC(=O)Nc2ccc3c(c2)c2ccccc2n3CC)nnc1-c1ccco1		active: 15.8 µM
CSc1ccccc1OCc1cc(C(=O)N2CCSCC2)no1	inactive: 12.2%	
O=[N+]([O-])c1cc(S(=O)(=O)Nc2ccccc2)ccc1Nc1ccccc1		inconclusive: 22.4 µM [inhibitor, partial curve]
CC(C(=O)Nc1ccc2c(c1)OCO2)N(C)CC(=O)Nc1ccc(Cl)cc1 (stereo not drawn)		inconclusive: 22.4 µM [inhibitor, full curve, poor fit]
CCOc1nc(Nc2ccc(OC)c(Cl)c2)nc(N2CCN(c3ccc(OC)cc3)CC2)n1		inconclusive: 12.6 µM [inhibitor, full curve]
O=S(=O)(c1ccc2c(c1)CCCN2)N1CCCCC1	inactive: 39%	
O=[N+]([O-])c1ccc(F)cc1F	inactive: -0.872%	
CN(C)c1c([N+](=O)[O-])cc2[nH]c(=O)[nH]c2c1[N+](=O)[O-]		inconclusive: 25.1 µM [inhibitor, single point]
O=S1(=O)C=CC(Nc2ccccc2)C1 (stereo not drawn)		inconclusive: 17.8 µM [inhibitor, partial curve]
CC1Oc2ccccc2N(CC(=O)NCCN2CCOCC2)C1=O (stereo not drawn)		inconclusive: 14.1 µM [inhibitor, partial curve]
CN(C)c1cccc(NC(=O)CCc2ccccc2)c1		inconclusive: 79.4 µM [inhibitor, partial curve]
Cc1ccc(CN2CCCn3nc(C(=O)NCCc4cccc(C)c4)cc3C2=O)cc1	inactive: 21.6%	
N#Cc1ccc(C(=O)Nc2cc(S(=O)(=O)Nc3ccc(Cl)cc3)ccc2N2CCCCC2)cc1		inconclusive: 22.4 µM [inhibitor, full curve, poor fit]
CC(C)C1Oc2ccccc2N(CC(=O)N(Cc2ccncc2)Cc2ccco2)C1=O (stereo not drawn)	inactive: 3.59%	
CCSc1nc2cc(S(=O)(=O)N3CCOCC3)ccc2o1		inconclusive: 14.1 µM [inhibitor, partial curve]
COc1ccc2c(c1)C(=NNC(=O)c1ccccn1)c1cc(OC)ccc1-2	inactive: 21.8%	
Cc1ccc(-n2c(N)c(-c3nc4ccccc4n3C)sc2=S)cc1		inconclusive: 10 µM [inhibitor, partial curve, poor fit]
COc1cccc(CN2CCC(C(=O)N3CCN(Cc4ccc5c(c4)OCO5)CC3)CC2)c1OC		inconclusive: 56.2 µM [inhibitor, partial curve, poor fit]
CCCOc1ccc(CSc2ncn[nH]2)cc1		inconclusive: 6.31 µM [inhibitor, single point]
